Data reported in PMC12136788.
The other results are listed elsewhere or left out.

B1: 44935981_44937674_2843_CDS_ENSG00000147050_ENST00000377967|human|control|control (ssRNA)
RNA: GGGAGUUCUACAGUCCGACGAUCAGGAAAGAAAGCAUCACGUUUAUUUUCCAAGUAAAUACUAGGUGUAGGUGGAUUCAACUUGUCCUUUGGCAAGGGAGGGUAUGGUGAAGAUGGUGGUCUUGGAGGUGGACAUUUAUCCAACAACAGAGGAUUGAGCAUCA
B2: chr2:198351390:198351391:-_ENSG00000144381_ENST00000345042|hu_hu|hu_hu_hu_mus_False|58_88 (ssRNA)
RNA: GGGAGUUCUACAGUCCGACGAUCUCAUUCCCACCCUCCACAGAAAGGCUGCUUAACAACUCUCAUGUGGUGACACAGCACUAAAAUCCUGAUGCUCACAGAACAGUAGAGAUGCCUCAGUGAUUUAAGUUGAAAGCAGGACACCAACAGAGGAUUGAGCAUCA
B3: chrX:69798090:69798091:-_ENSMUSG00000031343_ENSMUST00000055966|mus_hu|FALSE|FALSE (ssRNA)
RNA: GGGAGUUCUACAGUCCGACGAUCAAGUCCCCGGGUUCUUGUCGUCUUGAUUCCCCUUGACCAGUGGUUCCAGGGAGAAUAUUAAUCAGGAAAAGAAUCCCAAGGCUGGUCAUGUAACAGUGACUUGUUUGUGUGAUUAUCAUCCAACAGAGGAUUGAGCAUCA
B4: chr1:160310041:160310042:-_ENSG00000122218_ENST00000241704|hu_mus|FALSE|FALSE (ssRNA)
RNA: GGGAGUUCUACAGUCCGACGAUCUUUGUCAAUUAGGGUGCACAUCCGAUAGUCCCAUAACUGGAUGACCCCAUUGUGUAAACUGGUCAGGAUCCAGGGUCUUUUAGGAUGAAAACUAAGGCCUUUGACCCGCGCGCUCUUCGUCAACAGAGGAUUGAGCAUCA
B5: chr2:42509997:42509998:+_ENSG00000143924_ENST00000318522|hu_mus|hu_hu_hu_mus_True|28_28 (ssRNA)
RNA: GGGAGUUCUACAGUCCGACGAUCUCGCUGAGUCCUCUCCUCAUAAUUAAACAGGACUACCACUGAGGCGAUAAAAUAAACUAUCUCCCCUGUGGGAAGCAGGUAUACAUUAGCUCUACAGUCCUUUCCUCGAUAACCGUAUACCAACAGAGGAUUGAGCAUCA
B6: chr17:61432403:61432404:+_ENSG00000170921_ENST00000424789|hu_mus|motif|central (ssRNA)
RNA: GGGAGUUCUACAGUCCGACGAUCCUUCAUAUUGCACUGGAGUAAAUAAACCUCAGAGAGCGAAACAGGAACGACUUUGUAGCGGGAACUCUUUAGCACUAGGUAGCCUUUCUCUAUGAGGUCAAAUGUGAGUUUCAGGUAUAGCAACAGAGGAUUGAGCAUCA
B7: 12325077_12325638_1010_3pUTR_ENSMUSG00000064127_ENSMUST00000096495|mouse|control|control (ssRNA)
RNA: GGGAGUUCUACAGUCCGACGAUCAACUCGAAACUUCACACGGCCAUUUGCCACUGUAAGAUUUGCUAGCUGUGGAGGAAGAUCUGUCGUUACAAGCCUAUGUCUAAGAAUCUGAUUAAGCUGAUGAAGUGUGGCUUGUUUCUCCAACAGAGGAUUGAGCAUCA
B8: chr6:99998177:99998178:-_ENSG00000112237_ENST00000369220|hu_hu|FALSE|FALSE (ssRNA)
RNA: GGGAGUUCUACAGUCCGACGAUCAAGGGGAAGCAACAUGUCUUCUUGGCCCAUGUCCUGCACAUACUGGAGCAAAGGUCUAUAAGGAUGAUACACUAUCAAGCAACAAUCCAUUAGUUCUAACAGAUAGAAUUCACAUUCUAACAACAGAGGAUUGAGCAUCA
B9: chr12:57918738:57918739:+_ENSG00000166987_ENST00000355673|hu_hu|FALSE|FALSE (ssRNA)
RNA: GGGAGUUCUACAGUCCGACGAUCUGCUGGCCCCACCCCAGCCCCACCCGGGGUCACCGGGGCCAAAGGGUCAAAGUUGAAAACCUUGGGGACAUUAAGUGGACACUCCAGACCGCACUUGCAGGUCCCAUCGCUGAGGAGGUACAACAGAGGAUUGAGCAUCA
B10: 37442170_37476550_135_5pUTR_ENSMUSG00000063646_ENSMUST00000043794|mouse|control|control (ssRNA)
RNA: GGGAGUUCUACAGUCCGACGAUCACAGCUACCAGCUCGGCUGUGCUAAGCAGUCGUACAGGGCUCCGCUCGUCCUCUGUGCACACCAUCACUGGCGAGUCCAGCAAGGUCAGCCUUGGACAGAUGAGCGGUCUCCUCUGUGCCCAACAGAGGAUUGAGCAUCA
B11: 159998549_160000332_1686_CDS_ENSG00000068885_ENST00000483465|human|control|control (ssRNA)
RNA: GGGAGUUCUACAGUCCGACGAUCUCCACAAAGGAUAUUGCAUGUAUCGUUCCAUGCCAAAGUAUGCACCAUUGUUCCAAGCUUGAUAAUUUGUUCUUCCUUCCCAAAUCGUUUCACAGAAGUGAUACAGAGAUCUCUAUUUUUCAACAGAGGAUUGAGCAUCA
B12: chr1:60041781:60041782:+_ENSMUSG00000041040_ENSMUST00000036540|mus_hu|mus_mus_mus_hu_False|58_88 (ssRNA)
RNA: GGGAGUUCUACAGUCCGACGAUCAAGUUUACAAUAGUAAAGUAAAUCAAAUUUAGUCAAAUUUUCUUUUAUUUUCCUUCCUAAAAGAAAAUCUUUAUAACCCAGUCCUAGUCUUGGACAUAGUGAAAGCUAUAAAUUCUGACUCAACAGAGGAUUGAGCAUCA
B13: chr1:213302989:213302990:+_ENSG00000136643_ENST00000366960|hu_mus|motif|central (ssRNA)
RNA: GGGAGUUCUACAGUCCGACGAUCAGAAGCAACAGCCCCUACUGCCGAAGAAUCCGUAGACAGACUCAGACCAAAGGUUCGGCUGGGAGAACCCUGACGGGAAGCCAUUCCAUCAUCUACCUCGGCAAGAGAGUCUGCAUCAACCAACAGAGGAUUGAGCAUCA
B14: chr6:86333760:86333761:-_ENSG00000135316_ENST00000355238|hu_mus|motif|central (ssRNA)
RNA: GGGAGUUCUACAGUCCGACGAUCUUCCUCAAGAAUCUGCUCCUUGGUUUUACUCUUAGGAAUCGAGCCCACAAAAAGCCGGUUGUUGGCAACUGAGAUGCAGACACCAAUGUGCUUCCCGGAACGAAUUUCAUGAUUAUUAUACAACAGAGGAUUGAGCAUCA
B15: chr10:33190432:33190433:-_ENSG00000150093_ENST00000302278|hu_mus|hu_hu_hu_mus_True|1_88 (ssRNA)
RNA: GGGAGUUCUACAGUCCGACGAUCUACAUUUUCCAAACCUGCAUGUGAGUAAAACCAUGGCCACAGAGCCCCAAAACUACCCUACUGUGACUAAGAUGCUGCUGCUGUGAGCUUGGUGUUGCAAAAUCCGCCUGAGUCAGUACUCAACAGAGGAUUGAGCAUCA
B16: chr17:65740002:65740003:+_ENSG00000130935_ENST00000581375|hu_hu|hu_hu_hu_mus_False|18_28 (ssRNA)
RNA: GGGAGUUCUACAGUCCGACGAUCAACAAAUCUUUCUUCCCUGGACGAACAGGAAGAUUCAUAUUAAAAAAAAUAUAUAUCCAUCAAGUUAGGUGUGGUGGCCACACAGAGCUCCAGCACUUCAAUUGAGGUGGAUCUCUGAGUCAACAGAGGAUUGAGCAUCA
B17: chr12:93804944:93804945:-_ENSG00000177889_ENST00000549833|hu_mus|FALSE|FALSE (ssRNA)
RNA: GGGAGUUCUACAGUCCGACGAUCCAUGAAACGUACUUUAGGUGCUGCCAUUGGGUAUUCUUCUGGAAGGAAUAGUUCAAGUUUAAAAGUCCCUCCCUCAAAGGGGGAAUCCUGGGGGCCAGCAAUGACCACAUGAAAAUAACGCAACAGAGGAUUGAGCAUCA
B18: chr7:149068622:149068623:-_ENSMUSG00000025139_ENSMUST00000001950|mus_hu|mus_mus_mus_hu_False|48_58 (ssRNA)
RNA: GGGAGUUCUACAGUCCGACGAUCGUGAGGCCUCUGAGUGUGGCUUGUGGUCUGUCCUGGGUUAGAGUUGUUAAUAUCACUAAGUGGACCACUUAAGACGUUCCAGUCCCGCCUGACACCUUCAUUCCCAAUGGAGAAGAAAUCCAACAGAGGAUUGAGCAUCA
B19: chr4:17625889:17625890:+_ENSG00000118579_ENST00000237380|hu_hu|FALSE|FALSE (ssRNA)
RNA: GGGAGUUCUACAGUCCGACGAUCAGAGCUCUGGAAACAUUACAAAUAUUGUAUUAGAUUCCUCUUCUUGAGGUAGUUCAAAGUCUUAAAACAGAGCAAAUUUACAUACUUUUCUACACACCACCGCGGGGUAAUUAUCAUAAGCAACAGAGGAUUGAGCAUCA
B20: chr12:54126753:54126754:+_ENSMUSG00000061603_ENSMUST00000095737|mus_hu|FALSE|FALSE (ssRNA)
RNA: GGGAGUUCUACAGUCCGACGAUCCUGCUCCUCUGACAUCAUCAGGUCGUGGCUGUCCAUCACAAGGGACUCCAUGUCAAUCAGCCAAUCCCAGAGCUCCUGAUAUUCUGAAUCAAAGUCCAGAAGCCCAUUGCUUCCCACUGACAACAGAGGAUUGAGCAUCA
B21: 74383303_74383423_1176_3pUTR_ENSG00000114978_ENST00000396049|human|control|control (ssRNA)
RNA: GGGAGUUCUACAGUCCGACGAUCUUAUUGAUGGAAAUUCUUAAUGUCCAUUGUGCUGUCACCUAAAACAGAUUCAAUCAUUUUCUUGUAAAGAAAUGACUGAGUAAAUGAGUAAAAGAAUAAUAAGUAAAUUUAUAAGCUACACAACAGAGGAUUGAGCAUCA
B22: chr17:6138058:6138059:+_ENSMUSG00000034377_ENSMUST00000152672|mus_mus|motif|central (ssRNA)
RNA: GGGAGUUCUACAGUCCGACGAUCAAGCCCUUCCCUCAAGCAGAGGUGGAGGCCUGCGGGUCACUGAGUAUGAAUAAACUGCGGUCGGAAUGGACCAAGUAGUUUCCUCAGUUUGGUCCUACUUCUUGCUUACACAGACUAGGCCAACAGAGGAUUGAGCAUCA

Each binder was assayed against T1, UNK ZnF1-3 (human, UniProt Q9C0B0 31-174) (assay: nsRBNS (natural sequence RNA bind-n-seq); RBNS binding buffer (assumed for nsRBNS): 25 mM Tris pH 7.5, 150 mM KCl, 3 mM MgCl2, 0.01% Triton X-100, 500 ug/ml BSA, 20 U/ml SUPERase-In, 4 C; UNK is unkempt and MSI1 is Musashi-1; names of the RNAs are library labels; protein concentration not given here; high values mean tight binding).
T1 sequence: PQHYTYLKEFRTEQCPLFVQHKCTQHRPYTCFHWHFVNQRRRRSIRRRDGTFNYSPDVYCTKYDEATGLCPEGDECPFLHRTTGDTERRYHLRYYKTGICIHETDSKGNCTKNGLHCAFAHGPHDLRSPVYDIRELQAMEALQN

Binder	binding signal
B1	1.24 enrichment R
B2	1.15 enrichment R
B3	0.636 enrichment R
B4	0.89 enrichment R
B5	1.09 enrichment R
B6	1.33 enrichment R
B7	0.821 enrichment R
B8	0.9 enrichment R
B9	1.25 enrichment R
B10	0.484 enrichment R
B11	0.972 enrichment R
B12	0.604 enrichment R
B13	1.56 enrichment R
B14	1.39 enrichment R
B15	0.999 enrichment R
B16	1.09 enrichment R
B17	1.08 enrichment R
B18	0.835 enrichment R
B19	1.34 enrichment R
B20	1.13 enrichment R
B21	2.87 enrichment R
B22	0.705 enrichment R
